From article PMC4336329 (PLoS ONE, 2015)
The campaign covered roughly 310,000 compounds. About 2,200 (0.71%) showed an effect of 50% or more. The effect is printed as a negative number. The list shows a part of the results.

biological target: human ether-à-go-go-related gene (hERG) potassium channel (human, UniProt Q12809); assay: primary screen, population patch clamp on CHO cells stably expressing hERG
Sequence (Q12809 whole entry, looked up): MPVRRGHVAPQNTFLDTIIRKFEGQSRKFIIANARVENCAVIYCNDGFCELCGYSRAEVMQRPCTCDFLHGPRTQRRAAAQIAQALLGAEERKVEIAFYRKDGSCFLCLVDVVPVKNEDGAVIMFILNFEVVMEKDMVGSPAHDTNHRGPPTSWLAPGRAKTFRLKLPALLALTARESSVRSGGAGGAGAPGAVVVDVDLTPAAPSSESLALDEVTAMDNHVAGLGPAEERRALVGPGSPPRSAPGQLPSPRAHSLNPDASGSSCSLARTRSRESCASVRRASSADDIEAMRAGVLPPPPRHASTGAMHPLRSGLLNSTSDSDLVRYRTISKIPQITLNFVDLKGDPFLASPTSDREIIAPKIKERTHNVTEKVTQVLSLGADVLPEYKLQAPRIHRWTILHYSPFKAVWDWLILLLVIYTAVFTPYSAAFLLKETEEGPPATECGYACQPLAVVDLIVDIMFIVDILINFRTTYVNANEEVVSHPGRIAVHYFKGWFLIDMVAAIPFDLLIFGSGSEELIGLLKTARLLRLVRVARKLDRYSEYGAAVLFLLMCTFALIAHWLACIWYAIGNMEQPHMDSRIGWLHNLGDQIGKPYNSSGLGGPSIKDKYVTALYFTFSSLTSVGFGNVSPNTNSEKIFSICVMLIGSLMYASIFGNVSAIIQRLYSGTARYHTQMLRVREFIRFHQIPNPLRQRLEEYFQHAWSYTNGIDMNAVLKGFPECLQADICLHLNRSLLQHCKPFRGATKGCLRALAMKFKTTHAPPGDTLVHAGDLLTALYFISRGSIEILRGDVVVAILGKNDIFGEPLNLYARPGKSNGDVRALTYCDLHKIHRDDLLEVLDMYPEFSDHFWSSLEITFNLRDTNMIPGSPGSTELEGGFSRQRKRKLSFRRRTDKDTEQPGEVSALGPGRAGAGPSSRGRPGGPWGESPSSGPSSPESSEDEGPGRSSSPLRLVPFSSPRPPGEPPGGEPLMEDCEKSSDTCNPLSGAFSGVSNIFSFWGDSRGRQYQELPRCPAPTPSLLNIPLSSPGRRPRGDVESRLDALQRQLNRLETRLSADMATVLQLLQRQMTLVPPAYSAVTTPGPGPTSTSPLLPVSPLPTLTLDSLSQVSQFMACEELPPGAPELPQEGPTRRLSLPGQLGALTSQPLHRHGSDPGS

First: Nc1nc(Nc2ccc(Cl)cc2)nc(NCCO)c1[N+](=O)[O-]
Second: COc1cccc(-c2csc(N3CCN(C(=O)Nc4ccc(Cl)cc4)CC3)n2)c1
The “hERG current change (%, negative = inhibition) at 1uM” value of the first is higher: 26.7% for the first, 5.69% for the second.

Compared with `O=C(Nc1ccccc1C(=O)O)c1ccc(NC(=O)C2CC2)cc1`, `COC(=O)[C@H](Cc1ccccc1)NC(=O)Nc1ccc(S(N)(=O)=O)cc1` is lower in “hERG current change (%, negative = inhibition) at 1uM” value: 11.6% for the first, -5.61% for the second.

Compared with `O=C(CCc1cnccn1)NC1CCCc2c1cnn2-c1ccc(F)cc1F` (stereo not shown), `Cn1c(SCCCC(=O)c2ccc(F)cc2)nnc1-c1ccncc1` is lower in “hERG current change (%, negative = inhibition) at 1uM” value: 2.91% for the first, -38.5% for the second.

First: CCN(CC(=O)Nc1ccc(NC(C)=O)cc1)C(=O)c1c(-c2c(F)cccc2Cl)noc1C
Second: Cc1ccccc1N(CC(=O)Nc1ccc(S(=O)(=O)N2CCOCC2)cc1)S(C)(=O)=O
The “hERG current change (%, negative = inhibition) at 1uM” value of the first is higher: 14.9% for the first, 1.63% for the second.

First: O=C(NCCc1ccc(F)cc1)N1CCOCC1
Second: N#C/C(=C\c1ccc(N2CCOCC2)o1)C(=O)NCCc1ccccc1
The “hERG current change (%, negative = inhibition) at 1uM” value of the first is lower: 4.37% for the first, 4.94% for the second.

Going from `COCCCn1c(-c2ccc(S(=O)(=O)N3CCOCC3)cc2)csc1=Nc1ccccc1` to `Cc1ccc(S(=O)(=O)/N=S(/c2ccccc2)C(C)C)cc1` (stereo not shown), the “hERG current change (%, negative = inhibition) at 1uM” value rises from -1.23% to 15.1%.

First: O=C(C1CCN(S(=O)(=O)c2ccccc2F)CC1)N1CCc2ccccc2C1
Second: O=C(OCC(=O)N1CCc2ccccc21)c1ccc[nH]c1=O
The “hERG current change (%, negative = inhibition) at 1uM” value of the first is lower: -11.9% for the first, 13.8% for the second.

Going from `CC(C)NC(=O)NC1C2CC3CC(C2)CC1C3` (stereo not shown) to `COc1ccc(C(=O)NC(=S)N(C)C2CCCCC2)cc1`, the “hERG current change (%, negative = inhibition) at 1uM” value rises from 9.26% to 15.1%.

First: Cc1cc2ncn(-c3ncnc4sc(C)c(C)c34)c2cc1C
Second: C/C(=N\NC(=O)c1cc(C)oc1C)c1ccc(C)c([N+](=O)[O-])c1
The “hERG current change (%, negative = inhibition) at 1uM” value of the first is lower: 3.06% for the first, 24.6% for the second.

Going from `CO/N=C(/CS(=O)(=O)c1ccc(C)cc1)c1ccc(OC)cc1` to `COc1ccc(NC(=O)CCNS(=O)(=O)c2ccc3c(c2)CC(C)N3C(C)=O)cc1` (stereo not shown), the “hERG current change (%, negative = inhibition) at 1uM” value falls from 12.3% to -1.9%.

First: COc1cc(/C=N/NC(=O)Cn2cnc3ccccc3c2=O)ccc1O
Second: Cc1cc(Nc2ccccc2O)c2ccccc2n1.Cl
The “hERG current change (%, negative = inhibition) at 1uM” value of the first is higher: 15% for the first, 14.3% for the second.

Going from `COc1ccc(C)cc1S(=O)(=O)N(CC(=O)Nc1cccc([N+](=O)[O-])c1)c1ccccc1` to `CC(=O)COc1ccc2c(-c3cccc([N+](=O)[O-])c3)cc(=O)oc2c1`, the “hERG current change (%, negative = inhibition) at 1uM” value falls from 9.33% to 9.27%.

Going from `Cc1cccc(NC(=S)N2CCC(O)CC2)c1C` to `CC1CCN(C(=O)CSc2nc(=O)n3cc(Cl)ccc3n2)CC1`, the “hERG current change (%, negative = inhibition) at 1uM” value falls from 8.23% to 1.58%.

Compared with `C[C@H](NC(=O)N1CCn2c1nc1ccccc12)C(=O)NCc1ccccc1`, `O=C(COc1ccc(Br)cc1Cl)NC(=O)NCc1ccccc1` is lower in “hERG current change (%, negative = inhibition) at 1uM” value: 11.4% for the first, 4.64% for the second.

First: CC(=O)c1c(C)[nH]c(C(=O)Nc2cccc(C)n2)c1C
Second: CCC(C)c1c(O)nc(SCC(=O)c2ccccc2)[nH]c1=O (stereo not shown)
The “hERG current change (%, negative = inhibition) at 1uM” value of the first is lower: 13.4% for the first, 21.5% for the second.

First: Cc1ccc(-c2ccc(/C=N/N=C3/NC(=O)C(CC(=O)O)S3)o2)c([N+](=O)[O-])c1 (stereo not shown)
Second: Cc1c(C(C)NC(=O)c2ccc3nc(Cc4ccccc4F)oc3c2)cnn1C (stereo not shown)
The “hERG current change (%, negative = inhibition) at 1uM” value of the first is lower: 13.7% for the first, 15.2% for the second.

Going from `NS(=O)(=O)c1ccc(CCNC(=O)c2ccc(Cl)s2)cc1` to `COC(=O)C(Cc1ccccc1)NS(=O)(=O)c1ccc(F)cc1Br` (stereo not shown), the “hERG current change (%, negative = inhibition) at 1uM” value rises from 1.77% to 9.07%.

Going from `COc1ncnc(OC)c1NC(=O)c1ccc(F)cc1` to `COc1ccc(-c2noc(C(=O)NCc3ccc(F)cc3)n2)cc1OC`, the “hERG current change (%, negative = inhibition) at 1uM” value rises from 2.78% to 6.17%.

Going from `COc1ccc(NS(=O)(=O)c2ccc(NC(=S)NC(=O)c3ccc(Br)cc3)cc2)nn1` to `COc1cccc(NC(=O)c2ccc[n+](C)c2)c1.[I-]`, the “hERG current change (%, negative = inhibition) at 1uM” value rises from 1.6% to 8.89%.

First: CC(C(=O)N1CCOCC1)n1cc([N+](=O)[O-])cn1 (stereo not shown)
Second: O=C(CCSc1ccccc1)NCC1CCCO1 (stereo not shown)
The “hERG current change (%, negative = inhibition) at 1uM” value of the first is higher: 16.1% for the first, 5.36% for the second.

First: O=C(CSc1ccc2nnc(-c3ccccc3)n2n1)N1CCCc2ccccc21
Second: COc1ccc(N(C(=O)/C=C/C(=O)Nc2cc(C)on2)C(C(=O)NC2CCCC2)c2ccccc2C)cc1 (stereo not shown)
The “hERG current change (%, negative = inhibition) at 1uM” value of the first is lower: 0.0114% for the first, 13.3% for the second.

`COc1cccc(CN2CCN(C3CCN(c4cccc(C)c4C)CC3)CC2CCO)c1` (stereo not shown) was tested, and the “hERG current change (%, negative = inhibition) at 1uM” value was -30%.
